From PubChem BioAssay AID360 (National Center for Advancing Translational Sciences (NCATS), 2006)
About 550 (1.1%) of roughly 48,000 compounds were called active. Not shown: some 4% with an inconclusive outcome. Rule as the data show it: active = potency below about 15 µM; inconclusive = mostly about 16 µM to 33 µM; inactive = weaker than that. Some of the results follow.

molecular target: Lysosomal acid glucosylceramidase (Homo sapiens) (UniProt P04062); test: Glucocerebrosidase; conditions: purified enzyme, resorufin glucoside fluorescence (screen aimed at inhibitors), 20 min; series mostly up to 77 µM;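 also: the screen sought inhibitors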
Sequence of UniProt P04062 (P04062 whole entry, looked up): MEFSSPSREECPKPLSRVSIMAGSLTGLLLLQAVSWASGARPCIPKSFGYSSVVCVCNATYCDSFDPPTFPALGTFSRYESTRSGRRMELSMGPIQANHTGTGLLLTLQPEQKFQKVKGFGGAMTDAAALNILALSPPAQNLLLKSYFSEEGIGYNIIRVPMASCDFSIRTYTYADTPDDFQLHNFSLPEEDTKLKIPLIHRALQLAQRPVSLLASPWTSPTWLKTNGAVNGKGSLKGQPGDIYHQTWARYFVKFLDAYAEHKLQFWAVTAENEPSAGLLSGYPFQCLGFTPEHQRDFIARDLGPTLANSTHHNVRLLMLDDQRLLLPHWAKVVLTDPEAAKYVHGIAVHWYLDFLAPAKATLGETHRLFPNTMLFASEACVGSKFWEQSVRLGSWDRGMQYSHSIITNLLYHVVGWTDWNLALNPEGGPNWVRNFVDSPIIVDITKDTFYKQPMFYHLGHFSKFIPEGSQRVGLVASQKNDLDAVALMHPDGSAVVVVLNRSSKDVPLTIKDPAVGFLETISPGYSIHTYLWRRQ
Summary of the method: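 Wild-type enzyme at 0.2 nM final in 50mM citric acid/KH2PO4, 10mM sodium taurocholate, 0.01% tween-20, pH 5.9, with resorufin beta-D-glucopyranoside at 30 uM final. Compounds titrated, 20 min at RT, red fluorescence read; AC50 from titration.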
Potency is read from the fitted curve at half-maximal effect.

| Compound | Potency |
| --- | --- |
| O=C(Nc1cccc(NC(=O)c2cccs2)c1)c1ccco1 | inactive: > 76.9 µM |
| O=C(CCn1nc(-c2ccccc2)ccc1=O)NCCCN1CCCCCC1 | inactive: > 76.9 µM |
| Cc1nnc(SCc2cc(=O)[nH]c(Nc3nc(C)c4ccccc4n3)n2)s1 | inactive: > 76.9 µM |
| Brc1ccc(Nc2c3c(nc4ncnn24)CCC3)cc1 | inactive: > 76.9 µM |
| NC(=O)c1c(-c2ccccc2)oc2ccc(O)cc12 | inactive: > 76.9 µM |
| O=C(CC(=O)Nc1ccccn1)Nc1ccccn1 | inactive: > 76.9 µM |
| COc1ccc2cc(CN(C(=O)Nc3ccccc3OC)C3CCCC3)c(=O)[nH]c2c1 | inactive: > 76.9 µM |
| Cc1cnc(NC(=O)COc2ccccc2)s1 | inactive: > 76.9 µM |
| COc1ccccc1S(=O)(=O)Cc1ccc(C(=O)N2CCN(c3ccccc3)CC2)o1 | inactive: > 76.9 µM |
| CCOC(=O)c1c(C)oc2c1cc(O)c1ccccc12 | inactive: > 76.9 µM |
| COC1(OC)C(=N/O)/C(=N\O)CCC1O (configuration not stated) | inactive: > 76.9 µM |
| Cc1nnc(NC(=O)CCC(=O)N2CCC(C)CC2)s1 | inactive: > 76.9 µM |
| O=c1[nH]c2cc3c(cc2cc1C(c1nnnn1C1CCCCC1)N1CCSCC1)OCCO3 (configuration not stated) | inactive: > 76.9 µM |
| N#Cc1c(N)nc(SC2CCCCC2=O)c(C#N)c1-c1ccco1 (configuration not stated) | inactive: > 76.9 µM |
| Cc1csc(NC(=O)CSCC(=O)Nc2ccccc2)n1 | inactive: > 76.9 µM |
| CCOc1ccccc1-c1nc(-c2ccc(NC(=O)c3ccc(Br)o3)cc2)no1 | inactive: > 76.9 µM |
| O=c1[nH]nc2c3ccccc3cnn12 | inactive: > 76.9 µM |
| COc1ccc(NC(=O)Cn2nnc(-c3ccc(CN4CCOCC4)cc3)n2)c(OC)c1 | inactive: > 76.9 µM |
| Cc1cc(C(=O)CSc2nnc(-c3cccs3)o2)c(C)n1-c1ccccc1 | inactive: > 76.9 µM |
| COc1ccc(C(C(O)C(=O)c2c[nH]c3ccccc23)N2CCN(c3ccc(OC)cc3)CC2)cc1 (configuration not stated) | inactive: > 76.9 µM |
| Cc1c(NC(=O)C2CC(c3c(F)cccc3Cl)=NO2)c(=O)n(-c2ccccc2)n1C (configuration not stated) | inactive: > 76.9 µM |
| O=C(CNC(=O)C12CC3CC(CC(C3)C1)C2)NC1=NCCS1 | inactive: > 76.9 µM |
| CCOC(=O)N1CCC(NC(=O)c2cn(-c3ccc(OC)cc3)c(=O)c3ccccc23)CC1 | inactive: > 76.9 µM |

| Compound | Potency |
| --- | --- |
| CC(C)(C)c1cc(C(=O)N2CCN(c3ncccn3)CC2)ccn1 | inactive: > 76.9 µM |
| O=c1oc2ccccc2c(O)c1C=NCc1ccccn1 | inactive: > 76.9 µM |
| CC(C)C[C@H](NC(=O)NCc1ccccc1Cl)C(=O)O | inactive: > 76.9 µM |
| COCCOC(=O)c1c(C)oc2ccc(OC(=O)c3ccc4c(c3)OCO4)cc12 | inactive: > 76.9 µM |
| CC(C)N(Cc1nc(-c2ccc(Cl)cc2)no1)C(=O)c1cccs1 | inactive: > 76.9 µM |
| Cc1cc(NC(=O)c2cc3ncc(Br)cn3n2)no1 | inactive: > 76.9 µM |
| Cc1ccccc1-c1nc(CS(=O)CC(=O)NCCN2CCN(Cc3ccccc3)CC2)c(C)o1 (configuration not stated) | inactive: > 76.9 µM |
| O=C(Cn1c(=O)sc2ccccc21)Nc1ccc2c(c1)OCCO2 | inactive: > 76.9 µM |
| O=C(Oc1ccc2c(c1)OCO2)c1ccc(F)cc1Cl | inactive: > 76.9 µM |
| COC(=O)c1c(N)nc(C)n1-c1ccc(OC)cc1 | inactive: > 76.9 µM |
| CCSCCNC(=O)c1cncc(Br)c1 | inactive: > 76.9 µM |
| CC(=O)N1CCc2cc(S(=O)(=O)CCC(=O)Nc3ccc4c(c3)OCCO4)ccc21 | inactive: > 76.9 µM |
| Nc1nc(CN2CCN(c3cccc(Cl)c3)CC2)nc(N2CCCc3ccccc32)n1 | active: 13.8 µM |
| CCOC(=O)CSc1nnc(-c2ccco2)n1C | inactive: > 76.9 µM |
| CCOc1cc(S(=O)(=O)N2CC=C(c3ccc(F)cc3)CC2)c(OCC)cc1-n1cnnn1 | inactive: > 76.9 µM |
| COc1ccc(NC(=O)Nc2ccccc2C(=O)N2CCCC2)cc1 | inactive: > 76.9 µM |
| O=C(c1cccc(F)c1)N1CCN(CC2CC3C=CC2C3)CC1 (configuration not stated) | inactive: > 76.9 µM |
| COc1cccc(-c2c(NC(=O)c3ccco3)n(-c3ccc(C)cc3)nc(C)c2=O)c1 | inactive: > 76.9 µM |
| Cc1ccc2nc(CSc3nnc(-c4ccco4)n3-c3ccccc3)cc(=O)n2c1 | inactive: > 76.9 µM |
| Cc1cccc(OCc2nnc(N)s2)c1 | inactive: > 76.9 µM |
| CCc1ccc2c(c1)CCCN2C(=O)c1ccccc1C(=O)O | inactive: > 76.9 µM |
| Brc1ccc(-c2nn3c(-c4ccncc4)nnc3s2)o1 | inactive: > 76.9 µM |
| Cc1cc2oc(=O)cc(CN3CCc4ccccc43)c2cc1Cl | inactive: > 76.9 µM |

| Compound | Potency |
| --- | --- |
| COc1cc(C(=O)Nc2nnc(-c3sccc3C)s2)cc(OC)c1OC | inactive: > 76.9 µM |
| CCOC(=O)CN=C1CC(C)(C)CC2=C1Sc1ncnc(N(C)C)c1N2 | inactive: > 76.9 µM |
| COC(=O)c1c(-c2ccncc2)csc1NC(=O)c1ccoc1C | inactive: > 76.9 µM |
| Cn1nnnc1SCC(=O)N1CCN(Cc2ccccc2)CC1 | inactive: > 76.9 µM |
| Cc1cc(C)n(CC(=O)O)n1 | inactive: > 76.9 µM |
| O=C(Nc1ccc2c(c1)OCCO2)C1CCC1 | inactive: > 76.9 µM |
| O=C(O)c1ccccc1S(=O)(=O)c1ccccc1CO | inactive: > 76.9 µM |
| CCN(CC)S(=O)(=O)N1CCC(C(=O)NCCN2CCOCC2)CC1 | inactive: > 76.9 µM |
| COCCCN1C(=O)C(O)=C(C(C)=O)C1c1ccccn1 (configuration not stated) | inactive: > 76.9 µM |
| COc1ccc(Cl)cc1C(=O)Nn1c(C)nc2ccccc2c1=O | inactive: > 76.9 µM |
| CCN(CC)S(=O)(=O)c1cccc(C(=O)OCC(=O)N2CC(=O)Nc3ccccc32)c1 | inactive |
| COc1ccc(OC)c(NC(=O)C2CCCC2)c1 | inactive: > 76.9 µM |
| O=C(CN1CCN(Cc2ccccc2)CC1)c1c[nH]c2ccccc12 | inactive: > 76.9 µM |
| CCC(C)NC(=O)Cn1c(=O)n(-c2ccccc2)c(=O)c2ccc(C(=O)NCc3ccco3)cc21 (configuration not stated) | inactive: > 76.9 µM |
| CCCCOc1ccc(NC(=O)c2cnc(C)cn2)cc1 | inactive: > 76.9 µM |
| CC(=O)Nc1ccc(S(=O)(=O)N(C)S(=O)(=O)c2ccc(F)cc2)cc1 | inactive: > 76.9 µM |
| N=c1ccn(Cc2ccc(Cl)cc2)cc1 | inactive: > 76.9 µM |
| O=C(Nc1ccccc1C(=O)OCC(=O)N1CCc2ccccc2C1)c1ccco1 | inactive: > 76.9 µM |
| O=C(O)CSC1CC(=O)N(c2cccc(Cl)c2)C1=O (configuration not stated) | inactive: > 76.9 µM |
| O=C(Cn1nnc(-c2ccccc2NC(=O)C2CC2)n1)NC1CCCCC1 | inactive: > 76.9 µM |
| O=C(Cn1nnc(-c2ccccc2F)n1)Nc1cccc2ncccc12 | inactive: > 76.9 µM |
| CC(C)OC(=O)CSc1nc2ccccc2s1 | inactive: > 76.9 µM |
| CNC(=O)COC(=O)c1cc(F)c(F)cc1Cl | inactive: > 76.9 µM |

| Compound | Potency |
| --- | --- |
| CC(C)[C@H](NC(=O)Nc1ccc(Oc2ccccc2)cc1)C(=O)O | inactive: > 76.9 µM |
| Nn1cnnc1SCC(=O)Nc1ccc2c(c1)OCCO2 | inactive: > 76.9 µM |
| O=C(Nc1nnc(-c2ccco2)s1)C1CCCCC1 | inactive: > 76.9 µM |
| N#C/C(=C\c1ccc[nH]1)S(=O)(=O)c1ccccc1 | inactive: > 76.9 µM |
| COCCCN1C(=O)C(O)=C(C(=O)c2ccco2)C1c1ccccc1 (configuration not stated) | inactive: > 76.9 µM |
| COc1ccc(OC)c(C2C(C(=O)N(C)C)=C(C)Nc3nc4ccccc4n32)c1 (configuration not stated) | inactive: > 76.9 µM |
| CCCN1C(=O)C2C(C(=O)Nc3cccc(OC)c3)C3C=CC2(O3)C1C(=O)NC1CCCCC1 (configuration not stated) | inactive: > 76.9 µM |
| CCOC(=O)c1sc2c(c1C)C(c1cccs1)C1=C(CCCC1=O)N2 (configuration not stated) | inactive: > 76.9 µM |
| COc1ccc(CNC(=O)Cn2cnc3c(=O)n(C)c(=O)n(C)c32)cc1 | inactive: > 76.9 µM |
| CCCCOC(=O)c1ccc(NC(=O)C(CCS(C)(=O)=O)NC(C)=O)cc1 (configuration not stated) | inactive: > 76.9 µM |
| CC(NC(=O)C1CCC1)c1ccc(Cl)cc1 (configuration not stated) | inactive: > 76.9 µM |
| O=C(Cn1c(=O)oc2ccccc21)c1ccccc1 | inactive: > 76.9 µM |
| COc1cc2c(cc1OC)C1(CCCC1)CNC2C (configuration not stated) | inactive: > 76.9 µM |
| Cc1cc(C(F)F)n2ncc(C(=O)N3CCc4ccccc4C3)c2n1 | inactive: > 76.9 µM |
| CNC(=O)CN(C1CCCCC1)S(=O)(=O)c1ccc(OC)c(Cl)c1 | inactive: > 76.9 µM |
| O=C(CCN1C(=O)c2ccncc2C1=O)Nc1ccc2c(c1)OCCO2 | inactive: > 76.9 µM |
| CCN1CCN(c2nc(SC)nc3sc4c(c23)CC(C)(C)OC4)CC1 | inactive |
| Cn1c(=O)n(CC(=O)OCc2ccccc2)c(=O)c2c1nc1n2CCCN1C1CCCCC1 | inactive: > 76.9 µM |
| Nc1nc(C2CC2)c(Sc2sc(N)nc2C2CC2)s1 | inactive: > 76.9 µM |
| CCN(CC)CCSc1nc(O)c(C(C)C)c(=O)[nH]1 | inactive: > 76.9 µM |
| CCc1c(C)nc2ncnn2c1N1CCC(C(=O)Nc2cccc(C(C)=O)c2)CC1 | inactive: > 76.9 µM |
| O=c1c(-c2ccccc2)c(O)c2cccc3c2n1CCC3 | inactive: > 76.9 µM |
| CCOC(=O)c1cnn(-c2nc(C)cc(C)n2)c1N | inactive: > 76.9 µM |
